The record followed here is the RNAGym collection of RNA variant scans (doi:10.1093/nar/gkz1192).

Read counts are not given, so values of variants with three or more changes are uncertain.

The chains are these.
B1: CPEB3 Ribozyme (parent)
chain: UAACAGGGGGCCACAGCAGAAGCGUUCACGUCGCAGCCCCUGUCAGAUUCUGGUGAAUCUGCGAAUUCUGCUGUAUAUCUC

This data set covers variants of B1. The experiment in a line: self-cleavage, relative activity (ratio to wild type); higher = more cleavage; in vitro, sequencing. The essentials:
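Barcoded CPEB3 ribozyme mutants, produced by rounds of error-prone PCR, self-cleaved while being transcribed with T7 RNA polymerase for 5 hours at 37°C and during a subsequent 15 min DNase I step before EDTA was added. Sequencing of template-switched cDNA on Illumina gave cleaved and total reads, and DNA sequencing assigned barcodes to variants. Each variant's relative activity is its cleaved/total read fraction divided by the unmutated ribozyme's fraction, averaged across three batches. A variant needed a minimum of 5 reads.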
UAACAGGGGGCCACAGCUGAAGCGAUCACGUCGCAGCCCCUGUCAGAUUCAGGUGAAUCUGCGAAUUCUGCUGUAUAUCUC [A18U U25A U51A]: the self-cleavage turned out to be 0.22. With UAACAGGGGGCCACAGCUGAAGCGGUCACGUCGCAGCCCCAGUCAGAUUCUGGUGAAUCUGCGAAUUCUGCUGUAUAUCUC [A18U U25G U41A] the figure was 0.23; with UAACAGGGGGCCACAGCUGAAGCGUUCACGUCGCAGCCCCUGUCAGACUCUGGUGAAUCUGCGAAUUCCGCUGUAUAUCUC [A18U U48C U69C], 0.18; with UAACAGGGGGCCACAGCUGAAGCGUUCACGCCGCAGCCCCUGUCAGAUUCUGGUGAAUCUGCGGAUUCUGCUGUAUAUCUC [A18U U31C A64G], 0.19. With UAACAGGGGGCCACAGCUGAAGCGUGCACGUCGCAGCCCCUGUCAGAUUCUGGGGAAUCUGCGAAUUCUGCCGCAUAUCUC [A18U U26G U54G U72C U74C] the figure was 0.23.

For UAACAGGGGGCCACAGCUGAAGCGUUCACGUCGCAGCCCCUGUCAGAUCCUGGUGAAUCUGCGAAUUCUGCUGUAUACCUC [A18U U49C U78C], the self-cleavage turned out to be 0.15. With UAACAGGGGGCCACAGCUGAAGCGUUCACGCCGCAGCCCCUGUCAGAUUCUGGUGAAUCUGCGAAUUCCGCUGUAUAUCUC [A18U U31C U69C] the figure was 0.2; with UAACAGGGGGCCACAGCUGAAGCGUUCACGCCGCAGCCCCUGUCAGAUUCUGGUGAAUCUGCGAAUUCUGCUGUAAAUCUC [A18U U31C U76A], 0.15. For UAACAGGGGGCCACAGCUGAAGCGCCCACGUCGCAUCCCCUGUCAGAUUCUGGUGAAUCUGCGAAUUCUGCUGUAUAUCUC [A18U U25C U26C G36U], the self-cleavage came to 0.07. With UAACAGGGGGCCACAGCUGAAGCGUCCACGUCGCAGCCCCUGUCAGAUUCUGGUGAAUCUGCGAAUUCGGCUGUAUAUCUC [A18U U26C U69G] the figure was 0.6; with UAACAGGGGGCCACAGCUGAAGCGUUCACGUCGCAGCCCCUGUCAGACUCUGGAGAAUCUGCGAAUUCUGCUGUAUAUCUC [A18U U48C U54A], 0.33; with UAACAGGGGGCCACAGCUGAAGCGUCCACGUCGCAGCCCCUGUCAGAUUCUGGUGUAUCUGCGAAUUCUCCCGUAUAUCUC [A18U U26C A56U G70C U72C], 0.08. With UAACAGGGGGCCACAGCUGAAGCGUUCACGUCGCAGCCCCUGCCAGAUUCUGGUGAAUCUGCGAAUUCUGCUGUAUAUCAC [A18U U43C U80A] the figure was 0.25; with UAACAGGGGGCCACAGCUGAAGCGUUCACGACGCGGCCCCUGUCAGAUUCUCGUGAACCUGCGAAUCCUGCUGUAUGUCUC [A18U U31A A35G G52C U58C U67C A77G], 0.49.

Regarding UAACAGGGGGCCACAGCUGAAGCGUUCACGCCGCAGCCCCUGUUAGAUUCUGGUGAAUCCGCGAAUUCUGCUGUAUAUCUC [A18U U31C C44U U60C], the self-cleavage is 0.06. With UAACAGGGGGCCACAGCUGAAGCGUUCACGUCGCAGCCCCUGUCAGAUUCUGGUGAAUCAGCGAAUUCUGCUGUGUAUCUC [A18U U60A A75G] the figure was 0.3. Take UAACAGGGGGCCACAGCUGAAGCGUACACGUCGCAGGCCCUGUCAGACUCUGGUGAAUCCGCGAAUUCGGCUGUAUAUCUC [A18U U26A C37G U48C U60C U69G]: the self-cleavage was 0.05. With UAACAGGGGGCCACAGCUGAAGCGUUCACGUCGCAGCCCCUGUCAGAUUCUGGUGAAUCUGCGAAUUCUACUAUAUAUCUC [A18U G70A G73A] the figure was 0.43.

Consider UAACAGGGGGCCACAGCUGAAGCGUUCACGUCGCAGCCCCUGUCAGAUACUGGUGUAUCUGCGAAUUCAGCUGUAUAUCUC [A18U U49A A56U U69A], for which the self-cleavage amounted to 1.23. Consider UAACAGGGGGCCACAGCUGAAGCGCUCACGUCGCAGCCCCUGUCAGAUUCUAGUGAAUCUGCGUAUUCUGCUGUAUAUCUC [A18U U25C G52A A64U], for which the self-cleavage stood at 0.11.

In the case of UAACAGGGGGCCACAGCUGAAGCGUUCACGUCGCAGCCCCUGUCAGAUUCUGGUGAAUCCGCGGACUCUGCUGUAUAUCUC [A18U U60C A64G U66C], the self-cleavage was 0.11. For UAACAGGGGGCCACAGCUGAAGCGUCCACGUCGCAGCCCCUGUCAGAUUCCGGUGAAUCUGCGAAUUCCGCUGUAUAUCUC [A18U U26C U51C U69C], the self-cleavage came out at 0.08. On to UAACAGGGGGCCACAGCUGAAGCGUACACGUCGCAGCCCCUGCCAGAUUCUGGUGAAUCUGCGAGUUCUGCUGAAUAUCUC [A18U U26A U43C A65G U74A], for which the self-cleavage worked out at 0.32. With UAACAGGGGGCCACAGCUGAAGCGUUCACGUCGCAGCCCCUGCCAGAUUCUGGUGGAUCUGCGAAUUCUGCUGUAUAUCUC [A18U U43C A56G] the figure was 0.18. Turning to UAACAGGGGGCCACAGCUGAAGCGCUCACGUCGCAGCCCCUGUCAGAUUCUGGCAAAUCUGCGAAUUCUGCUGUAUAUCUC [A18U U25C U54C G55A], the self-cleavage stood at 0.06.

On to UAACAGGGGGCCACAGCUGAAGCGUUCACGUCGCAGCCCCUGUCAGAAUCUGGUAAAUCUGCGGAUUCUGCUGUAUAUCUC [A18U U48A G55A A64G], for which the self-cleavage is 0.04.

On to UAACAGGGGGCCACAGCUGAAGCGCUCUCGUCGCAGCUCCUGUCAGAUUCAGGCGAAUCUGCGAAUUCUGUUGUAUAUCUC [A18U U25C A28U C38U U51A U54C C71U], for which the self-cleavage was 0.05.

Regarding UAACAGGGGGCCACAGCUGAAGCGUCCACGUCGCAGCCCCUGUCAGAUUCUGGUGAAUCUGCGAGUUCUGCUGUAUACCUC [A18U U26C A65G U78C], the self-cleavage was determined as 0.21.

Regarding UAACAGGGGGCCACAGCUGAAGCGUUCACGUCGCAGCCCCUGUCAGACUCUGGUGAAUCUGCGAAUUCUGCUGUAUAUCCC [A18U U48C U80C], the self-cleavage turned out to be 0.35. On to UAACAGGGGGCCACAGCUGAAGCGAUCAAGUCGCAGCCCCUGUCAGAUUCUGGCGAUUCUGCGAAUUCUGCUGUAUACCUC [A18U U25A C29A U54C A57U U78C], for which the self-cleavage came out at 0.04.

Consider UAACAGGGGGCCACAGCUGAAGCGUUCACGUCGCAGCCCCUGUCAGAUUCUGGCGAAUCUGCGAAUUCUGCUGUAUAUUUC [A18U U54C C79U], for which the self-cleavage came out at 0.23. With UAACAGGGGGCCACAGCUGAAGCGUUCACGCCGCAGCCCCUGUCUGAUUCUGGUGAAUCUGCGAAUUCUGCUGUAUAUCUC [A18U U31C A45U] the figure was 0.23. With UAACAGGGGGCCACAGCUGAAGCGUUCACGUCGCAGCCCCUGCCAGAUUCUGGUGAAUCUGCGAAUUCUGCUGUAAAUCUC [A18U U43C U76A] the figure was 0.14; with UAACAGGGGGCCACAGCUGAAGCGUACACGUCGCUGCCCUUGUCAGAUUCUGGUGAAUCUGCGAAUUCUGCUGUAUAUCCC [A18U U26A A35U C40U U80C], 0.08.
